The full ranking holds about 33,000 sequences; the median of “E-score (-0.5 to 0.5)” is about -0.012, and the highest 2% start at about 0.27. This is one part of the list.
target: T1, Vhr1 (UniProt P40522); test: PBM E-score (8-mer binding enrichment) (E-score (-0.5 to 0.5)); higher = stronger / more preferred TF binding; most listed sequences are background and not binding sites; details: protein concentration: 200 nM; construct: GST-full length
T1 sequence: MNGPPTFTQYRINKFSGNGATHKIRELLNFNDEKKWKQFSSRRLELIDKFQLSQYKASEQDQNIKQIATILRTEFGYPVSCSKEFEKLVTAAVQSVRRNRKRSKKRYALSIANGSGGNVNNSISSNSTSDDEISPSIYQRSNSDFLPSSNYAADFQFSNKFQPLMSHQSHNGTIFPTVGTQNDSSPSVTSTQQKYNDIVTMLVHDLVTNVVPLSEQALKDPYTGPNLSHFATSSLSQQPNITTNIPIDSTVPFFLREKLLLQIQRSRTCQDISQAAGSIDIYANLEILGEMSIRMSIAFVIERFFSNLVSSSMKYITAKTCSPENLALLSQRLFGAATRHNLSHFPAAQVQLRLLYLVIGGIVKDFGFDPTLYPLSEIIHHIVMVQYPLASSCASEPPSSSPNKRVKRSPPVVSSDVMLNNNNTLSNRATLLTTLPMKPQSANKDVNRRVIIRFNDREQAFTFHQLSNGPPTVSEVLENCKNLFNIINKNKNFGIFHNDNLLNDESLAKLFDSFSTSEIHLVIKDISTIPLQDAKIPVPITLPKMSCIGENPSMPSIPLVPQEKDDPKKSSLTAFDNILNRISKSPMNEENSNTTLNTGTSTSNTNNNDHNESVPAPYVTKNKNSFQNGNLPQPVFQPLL
How it was run: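 Universal all-10-mer Agilent arrays, fresh or stripped once, were converted to double-stranded form by primer extension. GST-tagged yeast transcription factors from PURExpress in vitro transcription/translation, full-length or DNA-binding domain only, were applied at about 100-200 nM and detected with fluorescent anti-GST. After masliner normalisation, the Universal PBM Analysis Suite scored each ungapped eight-base word together with its reverse complement by E-score.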

| Sequence | PBM E-score |
| --- | --- |
| ACAATTCT | -0.00366 |
| ATGATCAG | 0.0756 |
| GAGTATCA | 0.0571 |
| TCGCATCA | 0.0056 |
| CAGTAGTA | 0.161 |
| AAAACCGT | -0.213 |
| AGCTTCCT | -0.227 |
| AATCGGAA | 0.0205 |
| GGGGAGGA | 0.099 |
| CTTCTACA | -0.176 |
| CGCCAACA | 0.00672 |
| CTTGTAAA | -0.0609 |
| GCAGGGAA | 0.0347 |
| AGGACCCG | -0.0953 |
| ATTTCGTG | -0.0116 |
| GAACCTTA | 0.0824 |
| AGTAATGG | 0.193 |
| ATGGTTGG | -0.0568 |
| AGGAACGG | -0.0244 |
| CTTAAAGA | -0.235 |
| CATAACAG | -0.158 |
| GCCCACCA | -0.125 |
| CCCAAGCG | 0.0169 |
| AACTTGTA | -0.249 |
| ATTAACAC | 0.241 |

| Sequence | PBM E-score |
| --- | --- |
| CTTTGGTA | -0.231 |
| ACCATAAA | 0.138 |
| CCCAATAC | 0.0511 |
| ATTTACCC | 0.024 |
| GGAGTGTA | 0.0149 |
| GAGTGTCA | 0.158 |
| AGAGTGCA | -0.192 |
| TAGACGAA | -0.211 |
| AAGAACCC | 0.0008 |
| AATTGTAA | -0.0717 |
| ACAGGGAA | -0.139 |
| AGCCCAGC | -0.0142 |
| TGTTACAA | 0.13 |
| GTACTCGA | 0.0427 |
| GAGATCTA | -0.00931 |
| CATATGAA | 0.0692 |
| AGCTAATC | 0.0422 |
| TAGCCAGA | -0.173 |
| GTCCACGA | -0.121 |
| GGAGCTAC | -0.0382 |
| AGAGTCTG | -0.106 |
| ACGCTCGC | 0.0589 |
| GTGATAAA | -0.00268 |
| GCGTCCAA | -0.236 |
| TGGCGAAA | -0.102 |

| Sequence | PBM E-score |
| --- | --- |
| TAGCACAA | -0.0198 |
| CTTCAATA | -0.0751 |
| CAGGGAAG | -0.251 |
| CGGAGAAC | -0.26 |
| TACGCTCA | 0.00765 |
| AACGCATA | -0.00498 |
| CTGTGTTC | -0.0211 |
| CAATACCC | 0.0292 |
| TCCGAAGA | -0.0938 |
| CGCAATAG | 0.117 |
| CGATGGCA | 0.0704 |
| ACCGACGG | -0.0192 |
| AACAGTGA | 0.059 |
| GTACAGTA | 0.0925 |
| AGTCACAG | 0.425 |
| CCCCCGCA | -0.144 |
| CAGAAAGG | -0.171 |
| TTACGCAA | -0.00797 |
| CGAGCGTA | -0.0714 |
| CATAGCTC | 0.0738 |
| ACAGTGGA | -0.0091 |
| CAGGGTCC | -0.236 |
| CAGATTAC | 0.00776 |
| ACGATGTA | 0.0879 |
| CGATGATA | 0.0734 |

| Sequence | PBM E-score |
| --- | --- |
| GAATTTGA | -0.0783 |
| TAAGACTA | 0.0978 |
| GAGAATCC | -0.117 |
| CTTAATAC | 0.145 |
| ACCTCTCC | -0.28 |
| AAAGATCG | -0.136 |
| CGTCTCAG | -0.0337 |
| AACTCGAG | 0.124 |
| GAAGGGAA | -0.189 |
| AACTACCA | 0.0724 |
| GGTCGTCA | 0.0187 |
| CACCACGG | -0.293 |
| GCTCTGCA | -0.201 |
| AAGCTTAA | -0.0734 |
| CTAAACCC | -0.00595 |
| ATTTTGGG | -0.177 |
| CAAACTTA | -0.0449 |
| CACATACA | 0.146 |
| CACCCAGG | 0.2 |
| CCACGGAG | -0.0267 |
| AAGCTAAG | -0.272 |
| TCCAAGAA | -0.107 |
| TTCTCAAA | -0.059 |
| CCAGTTTC | -0.0294 |
| GTTGTTCA | -0.013 |

| Sequence | PBM E-score |
| --- | --- |
| TAGTACTA | 0.21 |
| GAATTAAA | -0.125 |
| ACCGCCGG | 0.0453 |
| CTACGTTA | -0.174 |
| ATTAGGTC | 0.0995 |
| AGCACTTA | -0.0577 |
| CTAGATCC | -0.0844 |
| CCTAAACC | -0.202 |
| GCCTGTGA | -0.0772 |
| GTCGTCAC | 0.0135 |
| ACGGTGAA | -0.0159 |
| ATTATTAG | -0.122 |
| GGTCTCAA | -0.0755 |
| AGCATGCT | -0.0631 |
| CGACACAG | 0.203 |
| CCCAACAA | -0.00937 |
| TCATGTAA | 0.16 |
| AAATGCGT | 0.00275 |
| AGCGGCCC | -0.187 |
| GAGTCTGA | 0.157 |
| CATAGACA | 0.084 |
| ATTTGTAC | -0.0243 |
| CAAGCCTG | 0.105 |
| ATGTTGCC | -0.186 |
| GCGTTCAC | -0.0653 |

| Sequence | PBM E-score |
| --- | --- |
| ACTACAGT | 0.261 |
| AAGCTACA | -0.124 |
| ATGCTTAA | -0.0317 |
| CATCACGC | 0.121 |
| AAGATTAA | 0.0153 |
| GAAACCTA | -0.197 |
| GACCCTTA | -0.11 |
| CATTCCTC | 0.129 |
| ATTGGGCG | 0.00968 |
| AATCACGC | 0.354 |
| CTATTTAC | 0.00675 |
| ATATATTG | 0.0713 |
| GAGCTGAA | -0.0931 |
| TATTGCGA | 0.254 |
| CTGGTATA | -0.00271 |
| TCCCGCCA | 0.0546 |
| GGCTTATA | -0.129 |
| ACCGAGTA | 0.0825 |
| ATAGAGGG | -0.00111 |
| ACTTCTCC | -0.116 |
| ATACCTAT | 0.16 |
| CGTCTCAC | -0.00514 |
| AATGCAAG | -0.123 |
| CAATCCGC | 0.0522 |
| CGAGAGAC | 0.0447 |

| Sequence | PBM E-score |
| --- | --- |
| GCGAGTGA | 0.172 |
| AACATCAA | 0.0279 |
| TGGTAAAA | -0.0288 |
| ACTAAGAT | 0.165 |
| CGTAGGTC | -0.172 |
| ACTTTAAT | -0.146 |
| ATGCAGTA | 0.0873 |
| GAAAGAGA | -0.0159 |
| ACCGTCCC | -0.144 |
| CTTCTAGA | -0.226 |
| ATCCGCTG | 0.0611 |
| AACTTCCG | -0.0253 |
| GTATTCAA | 0.00227 |
| ACGGAGCG | 0.0309 |
| AACAGAAT | -0.0741 |
| CACCTGCG | 0.0143 |
| ATATTGGC | 0.0463 |
| CCGGGTGA | 0.208 |
| AAGTGCGT | -0.0339 |
| CTCGGCAG | -0.0396 |
| AAGCACCT | -0.15 |
| GCATAAAA | -0.124 |
